Reference: PubChem BioAssay AID1468 (National Center for Advancing Translational Sciences (NCATS), 2008)
The whole screen tested about 280,000 compounds, of which about 1,100 (0.39%) were called active. The shares of active, inactive and inconclusive entries below differ from those in the screen. Calls come from the whole dose curve; as a rule, active = well fitted inhibition curve with a large enough effect; inconclusive = small, poorly fitted or top-dose-only effect, or effect the other way; inactive = flat fitted curve, though single readings scatter. No potency is given beside an inconclusive call; the fits are too rough.

These compounds were tested against Microtubule-associated protein tau (Homo sapiens) (UniProt P10636) (assay: qHTS for Inhibitors of Tau Fibril Formation, Fluorescence Polarization). Conditions: K18 P301L tau heparin fibrillization, Alexa594 FP, 6 h; series mostly up to 57.7 µM; activity, negative = inhibition: at the top concentration.
Chain of UniProt P10636 (P10636 whole entry, looked up): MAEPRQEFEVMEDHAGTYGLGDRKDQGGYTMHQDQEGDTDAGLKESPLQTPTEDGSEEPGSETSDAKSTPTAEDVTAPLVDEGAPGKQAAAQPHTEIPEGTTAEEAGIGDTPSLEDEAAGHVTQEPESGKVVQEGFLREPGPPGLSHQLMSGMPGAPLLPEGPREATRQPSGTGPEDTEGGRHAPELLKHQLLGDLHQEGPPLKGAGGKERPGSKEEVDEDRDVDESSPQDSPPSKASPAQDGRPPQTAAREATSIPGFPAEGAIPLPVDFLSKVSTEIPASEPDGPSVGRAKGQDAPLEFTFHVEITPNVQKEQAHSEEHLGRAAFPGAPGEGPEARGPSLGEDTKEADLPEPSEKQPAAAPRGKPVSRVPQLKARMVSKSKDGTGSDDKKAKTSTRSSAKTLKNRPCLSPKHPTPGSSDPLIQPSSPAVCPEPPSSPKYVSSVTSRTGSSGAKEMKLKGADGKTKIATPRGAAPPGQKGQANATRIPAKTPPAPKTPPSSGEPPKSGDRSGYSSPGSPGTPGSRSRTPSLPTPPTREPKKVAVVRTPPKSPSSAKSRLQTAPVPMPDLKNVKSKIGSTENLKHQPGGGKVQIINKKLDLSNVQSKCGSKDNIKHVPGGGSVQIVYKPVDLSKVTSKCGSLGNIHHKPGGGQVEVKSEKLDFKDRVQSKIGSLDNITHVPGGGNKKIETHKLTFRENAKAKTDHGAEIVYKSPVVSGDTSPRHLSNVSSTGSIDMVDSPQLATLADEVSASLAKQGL
In short: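 Quantitative HTS format: compounds meet 15 uM recombinant K18 P301L tau and Alexa 594-tau tracer in 100 mM sodium acetate pH 7; 20 uM heparin triggers fibrillization at 37 C over 6 hr; FP gives the signal.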
% is set by controls: 0 for no effect and ±100 for the full control effect; potency is the fitted concentration of half-maximal effect; tags give direction and shape of the fitted curve.
Note: nearly all actives have a fitted effect of over 55% in size.

SMILES | Potency | activity, negative = inhibition
N#CC1=C(N)Oc2c(O)cc3ccccc3c2C1c1ccsc1 (centres undefined) | inconclusive [inhibitor, single point] | 
CC(C)c1ccc(/C=N/NC(=O)c2cccc(S(=O)(=O)N3CCOCC3)c2)cc1 | inconclusive [inhibitor, single point] | 
CCCOc1ccc(N2C(=O)CC(N(CCc3ccc(OC)c(OC)c3)C(=S)Nc3ccccc3)C2=O)cc1 (centres undefined) |  | inactive: 1.67%
CN(C)c1ccc(/C=C/c2ccc3c4ccccc4ccc3[n+]2-c2ccccc2)cc1 | inconclusive [inhibitor, single point] | 
CCCCOc1ccc(C(=O)NCCC(=O)NCCCC(=O)OCC)cc1 | inconclusive [inhibitor, partial curve, poor fit] | 
CN1CCc2c(sc(/N=C/c3cccs3)c2C(N)=O)C1 | inconclusive [inhibitor, single point] | 
COc1cc(/C=N/NC(=O)c2ccc(O)cc2)ccc1Oc1ccc([N+](=O)[O-])cn1 |  | inactive: 3.11%
CC1Cc2ccccc2N1C(=O)CSc1nc2ccccc2s1 (centres undefined) |  | inactive: -0.985%
Cc1ccc2c(c1)[nH]c1c(N3CCN(Cc4ccccc4)CC3)ncnc12 | inconclusive [activator, partial curve] | 
CC(=O)NC1C(=O)N(CCc2ccccc2)c2ccc(Br)cc21 (centres undefined) |  | inactive: -1.65%
CCOC(=O)c1c(NC(=O)CSc2nnc(-c3ccccc3)o2)sc(C(C)=O)c1C |  | inactive: 1.82%
Cc1ccc(Cn2c(SCC(=O)NCc3ccc(Cl)cc3)nc3ccsc3c2=O)cc1 |  | inactive: -0.423%
CC(=O)Nc1ccc(NC(=O)CCCSc2nc3ccccc3[nH]2)cc1 |  | inactive: 2.13%
CN(c1cccc(NC(=O)CN(c2ccc(C34CC5CC(CC(C5)C3)C4)cc2)S(C)(=O)=O)c1)S(C)(=O)=O | inconclusive [inhibitor, single point] | 
NS(=O)(=O)c1ccc(NC(=S)NC(=O)/C=C/c2cccs2)cc1 | inconclusive [inhibitor, single point] | 
CCCN(C(=O)c1cc2c(s1)-c1ccccc1SC2)c1ccccc1F |  | inactive: -5.02%
Cc1csc(SCC(=O)Nc2ncc(Cl)c(C)c2Cl)n1 |  | inactive: -1.59%
CN(C)S(=O)(=O)c1ccc(Cl)c(NC(=O)COC(=O)c2cc(-c3ccccc3)nc3ccccc23)c1 | inconclusive [inhibitor, partial curve] | 
CCOC(=O)c1c(C)[nH]c(N=Nc2ccccc2)c1C | inconclusive [inhibitor, full curve, poor fit] | 
COc1ccccc1NC(=O)Nc1ccc(N2CCOCC2)cc1 |  | inactive: -7.52%
O=C(COC(=O)c1cccc(NS(=O)(=O)/C=C/c2ccccc2)c1)Nc1ccccc1OC(F)F | inconclusive [inhibitor, partial curve, poor fit] | 
N=C1/C(=C/c2cccn2-c2ccc([N+](=O)[O-])cc2)C(=O)N=C2SC=CN12 |  | inactive: 5.77%

SMILES | Potency | activity, negative = inhibition
CCOC(=O)/C=C1\CC(C(=O)OCC)Oc2c(OC)cccc21 (centres undefined) |  | inactive: -9.23% [at 81.3 µM]
Cc1ccc(NC(=O)COc2ccc(C3SCCS3)cc2)cc1 | inconclusive [inhibitor, single point] | 
Cc1cc(NC(=O)c2noc3c2CCCC3)no1 |  | inactive: -0.458%
CCc1ccc(NC(=O)Cn2cnc3sc(C)c(S(=O)(=O)N4CCC(C)CC4)c3c2=O)cc1 | inconclusive [inhibitor, partial curve, poor fit] | 
CC(=Nc1cccc(O)c1)c1sc2ccccc2c1O | inconclusive [activator, partial curve] | 
CCN(CC)CCN1C(=O)C(=O)/C(=C(/O)c2ccncc2)C1c1ccccc1 (centres undefined) | inconclusive [inhibitor, full curve, poor fit] | 
Cc1ccc2nc(NC(=S)NC(=O)c3ccc(OC(C)C)cc3)sc2c1 | inconclusive [activator, partial curve, poor fit] | 
CC(C)(C)N1C(=O)[C@@H]2[C@H]3C(=CC[C@H]2C1=O)C(=O)[C@H]1O[C@H]1[C@H]3O | inconclusive [inhibitor, partial curve] | 
CC1CCN(S(=O)(=O)c2ccc(NC(=S)NC(=O)c3ccc(Cl)cc3)cc2)CC1 | inconclusive [inhibitor, single point] | 
Cc1ccc2cccc(OCC(=O)c3cc(C)n(Cc4ccco4)c3C)c2n1 |  | inactive: -1.9%
O=C(/C=C/c1ccco1)Nc1ccc2nn(-c3ccccc3)nc2c1 | inconclusive [inhibitor, full curve, poor fit] | 
CCc1ccccc1NNC(=O)CCc1ccccc1 |  | inactive: 1.31%
O=C(NC(O)C(=O)c1ccccc1)c1cccs1 (centres undefined) |  | inactive: -2.47%
Cc1nnc(NC(=O)c2nc(S(=O)(=O)Cc3ccccc3)ncc2Cl)s1 | inconclusive [inhibitor, partial curve] | 
CCOc1ccc(NC(=O)C(C)Sc2nnc3cc(C)c4ccccc4n23)cc1 (centres undefined) |  | inactive: 12.4%
CCCNC(=O)c1nn2cc(Br)cnc2c1Cl | inconclusive [inhibitor, single point] | 
CC1=CC(C)(C)n2c(O)c(N=N)c3cc(C)cc1c32 | inconclusive [inhibitor, full curve] | 
Cc1cc2nc3ccc(=[N+](C)C)cc-3sc2cc1N | active: 8.91 µM | 
COC(=O)[C@H]1CC2(CC=C(C)C)C(=O)[C@@](CC=C(C)C)(C(=O)C(C(=O)c3ccccc3)=C2OC)C1(C)C (tested in a mixture with another compound) | inconclusive [inhibitor, single point] | 
N=C1CCCN1CC(=O)c1ccc(Br)cc1 | inconclusive [inhibitor, single point] | 
COc1ccc(C(=O)CN2C(=O)N(c3cc(C)cc(C)c3)S(=O)(=O)c3ccccc32)cc1 | inconclusive [inhibitor, partial curve] | 
O=C(Cc1cccs1)N/N=C/C=C\c1ccco1 | inconclusive [inhibitor, single point] | 
